# In all, about 45,000 compounds went through this assay and about 200 (0.44%) were called active. Inconclusive results (about 7%) are left out. Calls come from the whole dose curve; as a rule, active = well fitted activation curve with a large enough effect; inconclusive = small, poorly fitted or top-dose-only effect; inactive = no such curve, though single readings can be large or run the other way. The list shows a part of the results.
# Experiment: qHTS of TDP-43 Inhibitors: NCGC Sytravon Library Screen; note: 0% is about no effect; nearly all actives have a fitted effect of over 55% in size
# Settings: yeast TDP-43 toxicity rescue, BacTiter-Glo growth, 24 h; series mostly up to 46.1 µM; growth rescue (activation): at the top concentration
# In short: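 TDP-43-expressing yeast, pregrown in raffinose, seeded at OD600 0.02 in galactose medium with compound for 24 hr at 30 deg C. Growth read by BacTiter-Glo luminescence, so rescue of toxicity appears as activation.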
row,SMILES,growth rescue (activation)
1,NC(=O)c1nnsc1Sc1c(C(N)=O)nnn1-c1cccc(N)c1,inactive: 7.47%
2,Cc1ccc(N(O)C(=O)NCCCCNC(=O)N(O)c2ccc(C)cc2)cc1,inactive: 15.1%
3,CCc1nc2ccc(C(=O)N(CC)CCN(C)C)cn2c1N(C)Cc1ccc(OC)cc1,inactive: 7.1%
4,CN(C)CCCNc1nc(N)c([N+](=O)[O-])c(NCc2ccccc2)n1,inactive: 6.58%
5,COc1ccc(/C=C(/NC(=O)/C=C/c2ccccc2)C(=O)NCCCCCC(=O)O)cc1,inactive: -0.967%
6,COC(=O)c1ccc(NC(=O)CNCc2ccncc2)cc1,inactive: 5.28%
7,c1ccc2c(c1)nnn2CNc1nccs1,inactive: -0.765%
8,O=[N+]([O-])c1ccc(Cc2nnc(-c3ccccc3Cl)o2)cc1,inactive: 22.8%
9,CCCCC(=O)Nc1ccc(C(=O)Nc2ccc(S(=O)(=O)Nc3nccc(C)n3)cc2)cc1,inactive: 15.9%
10,COc1ccccc1NC(=O)c1ccccc1C(=O)N(C)Cc1ccccc1,inactive: 21.6%
11,Cc1cccc(Nc2nc(N)nc(CN3CCC(C(N)=O)CC3)n2)c1C,inactive: 11.4%
12,CC1(C(=O)NS(=O)(=O)c2cccc(Cl)c2)CCN1C(=O)c1cccc(F)c1 (stereo unspecified),inactive: 3.27%
13,Cc1cccc(CC(=O)Nc2ccc(C(=O)N3CCCCC3)cc2)c1,inactive: -7.47%
14,CCc1nc2ccc(C(=O)Nc3cccc(NS(C)(=O)=O)c3)cn2c1N(C)C(=O)Cc1ccccc1,inactive: -10.6%
15,CC(=O)N=c1scc(-c2ccccc2)n1-c1cccc(O)c1,inactive: 1.8%
16,CC(C)N1CCCC(C)(C(=O)Nc2nc3ccccc3n2C)C1 (stereo unspecified),inactive: -5.02%
17,CC(/C=C/c1ccccc1)=N\Nc1ccccc1[N+](=O)[O-],inactive: -2.58%
18,COc1cc(OC)c(OC)cc1/C=N/NC(=O)c1ccc(=O)n(C)c1,inactive: 14.9%
19,Cc1cc(C)c(NC(=S)NC(=O)c2ccc(-c3ccccc3)cc2)c(C)c1,inactive: 25.4%
20,CC(=O)C1=C(O)C(=O)N(c2ccc(O)cc2)C1c1ccc([N+](=O)[O-])cc1 (stereo unspecified),inactive: 1.03%
21,Cc1ccc(C2CC(=O)C=C(NCC(C)C)C2)cc1 (stereo unspecified),inactive: 15.4%
22,O=C(NC(c1ccc(F)cc1)c1ccc2ccccc2n1)C1CCN(Cc2ccc(Oc3ccccc3)cc2)CC1 (stereo unspecified),inactive: 9.88%

row,SMILES,growth rescue (activation)
1,CS(=O)(=O)NCCNc1cc(Cl)ccc1[N+](=O)[O-],inactive: 7.01%
2,CCn1c(N2CCN(C(=S)Nc3ccc(OC)cc3)CC2)nc2ccccc21,inactive: -1.17%
3,COc1ccc(OCC(=O)NS(=O)(=O)c2ccccc2)cc1,inactive: 20.8%
4,N#Cc1ccsc1NC(=O)CN1CCN(c2ccccc2)CC1,inactive: 15.9%
5,CCCC(C)NC(=O)Cn1c(=O)c2c(ncn2CCC(C)C)n(Cc2ccccc2)c1=O (stereo unspecified),inactive: 17.7%
6,O=C(O)CC(c1cccc([N+](=O)[O-])c1)N1Cc2ccccc2C1=O (stereo unspecified),inactive: -2.46%
7,CCC[N+]1(CC#CCC(c2ccccc2)c2ccccc2)CCCCC1,inactive: 9.53%
8,Cc1cccc(CN2CCc3c([nH]c4ccccc34)C2)c1,inactive: -6.83%
9,COc1ccc(-n2nc3c(N)n[nH]c3cc2=O)cc1,inactive: -1.72%
10,CCN(CC)C(=O)c1cccc(-c2csc(C(C)(O)c3ccccc3)n2)c1 (stereo unspecified),inactive: 22.7%
11,Cc1ccc(S(=O)(=O)N2CCOCC2)cc1NC(=O)COC(=O)c1ccc2c(c1)OCO2,inactive: 1.25%
12,COc1ccc2nc(C)cc(Nc3ccccc3O)c2c1,inactive: -2.52%
13,C/C(CC(=O)Nc1ccc(C)c(Cl)c1)=N\NC(=O)C1CCCCC1,inactive: 6.02%
14,COc1ccc(CNC(=O)CCSc2ccc(F)cc2)cc1OC,inactive: 22.8%
15,Cc1oc(/C=N/NS(=O)(=O)c2ccccc2)cc1Br,inactive: 18%
16,COc1cc(/C=N/NC(=O)c2cc(C)n(-c3ccc(F)cc3)c2C)cc(OC)c1O,inactive: 2.67%
17,O=C(Nc1ccc(S(=O)(=O)N2CCCCC2)cc1)c1ccc(F)cc1,inactive: 18.9%
18,Cc1cccc(C)c1OCc1nc2c3c(-c4ccccc4)c(-c4ccccc4)oc3ncn2n1,inactive: 8.03%
19,COc1ccc(C2CCCN2CC(O)COc2ccccc2C(C)C)cc1 (stereo unspecified),inactive: 11.8%
20,CCn1cc(C(=O)N2CCN(c3ccc(C(C)=O)cc3)CC2)c2cc(OC)c(OC)cc2c1=O,inactive: 0.345%
21,CCC(CO)NS(=O)(=O)c1cc(-c2nn(C)c(=O)c3ccccc23)ccc1C (stereo unspecified),inactive: -6.82%
22,O=C(COC(=O)Cc1ccc(Cl)cc1Cl)NCCC1=CCCCC1,inactive: 22.8%

row,SMILES,growth rescue (activation)
1,CN(CCCC(=O)Nc1ccccc1F)S(=O)(=O)c1ccc(F)cc1,inactive: 3.46%
2,COc1ccc(Cl)cc1NC(=O)C1Cc2ccccc2CN1S(C)(=O)=O (stereo unspecified),inactive: -4.66%
3,CCc1ccc(NC(=O)Cn2c3[n+](c4c(F)c(F)ccc42)CCCCC3)cc1,inactive: -15.3%
4,O=C(O)c1cc(NC(=S)NC(=O)C(c2ccccc2)c2ccccc2)ccc1Cl,inactive: 2.25%
5,Cn1c(=O)c(=O)n(C)c2cc(S(=O)(=O)CCC(=O)Nc3ccc(F)cc3)ccc21,inactive: 10.9%
6,CC(=O)Nc1ccc(NC(=O)C/C(C)=N/NC(=O)COc2cc(C)c(Br)cc2Br)cc1,inactive: 7.96%
7,O=C(CC(c1ccccc1)c1ccccc1)NCC(O)c1ccc([N+](=O)[O-])cc1 (stereo unspecified),inactive: -2.38%
8,COc1ccc(C(=O)N/N=C/c2ccccc2OC(=O)c2ccccc2)cc1,inactive: 5.42%
9,COC(=O)c1ccc(/C=C2/SC(=S)N(CCCC(=O)Nc3ccccn3)C2=O)cc1,inactive: 8.68%
10,Cc1ccc(-c2noc(Cn3nc(C(=O)O)c4ccccc4c3=O)n2)cc1,inactive: -3.51%
11,COc1ccc(/C=N/Nc2cc(C)nc(N3CCOCC3)n2)cc1OC,inactive: 23.2%
12,FC(F)(F)c1cc(Cl)c2nnc(C(F)(F)Cl)n2c1,inactive: -7.28%
13,COc1cc(C2SCC(=O)N2CCCN(C)C)cc(OC)c1OC (stereo unspecified),inactive: -5.97%
14,CCCN1CN=C(NS(=O)(=O)c2ccc(C)cc2)NC1,inactive: 5.24%
15,COc1cccc(N2CCN(C(=O)c3cccn4c(=O)c5c(C)c(C)sc5nc34)CC2)c1,inactive: -2.5%
16,C=C(C)C(=O)NNc1ccccc1,inactive: 6.73%
17,CCOC(=O)C1=C(C)NC(C)=C(C(=O)OCC)C1C(=O)OCC(=O)NCc1ccccc1,inactive: 7.06%
18,CCn1c(SCC(=O)Nc2ncc(C(F)(F)F)cc2Cl)nnc1-c1cccc(C)c1,inactive: 24.1%
19,CCN(C(=O)COC(=O)c1cc(-c2ccccc2)nc2c1c(C)nn2-c1ccc(C)cc1)C1CCS(=O)(=O)C1 (stereo unspecified),inactive: 2.44%
20,CCCC(C(=O)NCc1ccco1)N(C(=O)CNS(=O)(=O)c1ccccc1)c1ccc(OC)cc1 (stereo unspecified),inactive: 21.5%
21,CCOc1ccc2oc(C(=O)NC3CC(C)(C)NC(C)(C)C3)c(C)c2c1,inactive: 0.957%
22,Cc1ccccc1OCC(=O)Nc1ccc(-c2nc3ncccc3o2)cc1,inactive: 3.49%
